Data on 86 sequences can be found in the supplement of paper PMC3334620.

The full ranking holds about 33,000 sequences; the median of “E-score (-0.5 to 0.5)” is about -0.036, and the highest 2% start at about 0.37. Some of the results follow.

This experiment deals with T1, Yer064c (UniProt P40041).
T1 sequence: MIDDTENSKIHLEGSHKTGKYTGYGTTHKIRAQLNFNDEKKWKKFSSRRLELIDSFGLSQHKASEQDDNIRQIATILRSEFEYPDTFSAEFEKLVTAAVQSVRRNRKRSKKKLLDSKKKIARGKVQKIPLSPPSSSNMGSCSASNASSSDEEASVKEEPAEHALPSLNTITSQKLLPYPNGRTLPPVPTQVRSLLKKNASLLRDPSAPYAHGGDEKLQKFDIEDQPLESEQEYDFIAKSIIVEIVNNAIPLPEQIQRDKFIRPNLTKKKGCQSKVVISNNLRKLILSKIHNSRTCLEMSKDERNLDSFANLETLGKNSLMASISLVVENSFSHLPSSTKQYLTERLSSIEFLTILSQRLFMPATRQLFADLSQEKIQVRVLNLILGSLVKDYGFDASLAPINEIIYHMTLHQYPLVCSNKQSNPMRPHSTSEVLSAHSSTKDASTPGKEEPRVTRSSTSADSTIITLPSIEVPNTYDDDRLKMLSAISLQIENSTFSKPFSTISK
The experiment in a line: PBM E-score (8-mer binding enrichment) (E-score (-0.5 to 0.5)); higher = stronger / more preferred TF binding; most listed sequences are background and not binding sites. The settings on record: protein concentration: 200 nM; construct: GST-full length. In a few lines: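 The E-score, a modified Wilcoxon-Mann-Whitney statistic, was computed by the Universal PBM Analysis Suite for every ungapped eight-base word pooled with its reverse complement. Scans behind it were normalised with masliner after bound GST-tagged yeast transcription factors were detected with fluorescent anti-GST. The proteins, at about 100-200 nM, had been applied to universal all-10-mer Agilent arrays made double-stranded by primer extension.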
As to CCCCTCCC, the “PBM E-score” value was -0.268. For AATCAAGA the value was 0.235; for TAAAAGTA, 0.0688. For ATGGCCCA the value was -0.173.

For the sequence GATTTCAA, the “PBM E-score” value worked out at 0.112. Consider TGATAAAA, for which the “PBM E-score” value was found to be 0.0422. For ATGATTAG the value was 0.438; for GGCTACCA, -0.00666.

For AGCCACCT, the “PBM E-score” value worked out at 0.154.

Take ATAGGACG: the “PBM E-score” value was -0.178. For CGTTACGA the value was -0.0217; for GCATGCGA, -0.147.

Take GCCGTGAC: the “PBM E-score” value is 0.293.

As for GGTTCTGA, the “PBM E-score” value came to 0.159.

Consider CGGAGCAA, for which the “PBM E-score” value is -0.244. For CTCTTACA the value was -0.0635; for CGGATCTA, -0.0634; for ATGTAAAC, -0.0389. For the sequence ACACGCCA, the “PBM E-score” value is -0.0841. ACTCCCGC: the “PBM E-score” value was 0.0508.

Take GTTCGCCA: the “PBM E-score” value was -0.0839. Regarding AAAGGACT, the “PBM E-score” value amounted to 0.264. In the case of GCCCGCAA it was 0.0354; in that of CATCAAAA, 0.153; in that of ACGTTTCG, -0.064. Take ACAGATAT: the “PBM E-score” value was determined as 0.0215. For AAACTAAG the value was 0.175.

On to ATCATCAT, for which the “PBM E-score” value worked out at 0.332.

On to GAATAGGA, for which the “PBM E-score” value was 0.016. Consider ACTAAAAC, for which the “PBM E-score” value worked out at 0.201. On to TACGAAAA, for which the “PBM E-score” value is 0.0872. For AGCTGTCC, the “PBM E-score” value was -0.216. In the case of GGGTGTCA, the “PBM E-score” value was determined as 0.0522.

As to AGAGTTTG, the “PBM E-score” value is -0.113. As to TACGCCTA, the “PBM E-score” value stood at 0.0847. With AAACCTGC, the “PBM E-score” value is -0.202. As for CGTCACCA, the “PBM E-score” value is -0.0242.

As to CGGCAACA, the “PBM E-score” value was -0.101. For AATAATGC the value was 0.024. On to CCCCGACC, for which the “PBM E-score” value was -0.258.

TAGAGCGA: the “PBM E-score” value came to 0.112. For CGGGACGA the value was -0.0778. For the sequence ACTTAAGC, the “PBM E-score” value was found to be 0.1. In the case of AAAAAGAG it was 0.0369; in that of AAGTCCAG, -0.0247. For AGACCGAG the value was -0.0195; for GCGAATAA, -0.11.

For the sequence GGAATGGA, the “PBM E-score” value was -0.211.

As to CCAGGGCC, the “PBM E-score” value was -0.173. For ACGATAAG the value was -0.117. In the case of AATTCTAC it was -0.0155; in that of TAATCTCA, 0.21; in that of GCTTGCAA, -0.0673. With ACGGGCTA, the “PBM E-score” value is -0.288. In the case of CTTCTGAA it was -0.0666; in that of CCGCGACG, -0.14; in that of ATAGGTAG, 0.0647. In the case of AAGTTAAA it was -0.00583; in that of ACATGGCG, -0.156. For CGGCATTC the value was -0.181; for GGACAAAA, -0.153. In the case of GGGGTATA, the “PBM E-score” value was -0.16. In the case of ATGCACCC it was -0.0692; in that of AGCCCACA, -0.143; in that of ACATGGAC, 0.0899. In the case of CACTCGAC it was -0.0515. Take AAAGGGCC: the “PBM E-score” value was -0.189.

Turning to CTGGGAAG, the “PBM E-score” value was 0.0347. For ATTGGCGC the value was -0.244.

Take TCATTTCA: the “PBM E-score” value amounted to 0.274.

CAAATGTC: the “PBM E-score” value is -0.23. Regarding CTGAGAAC, the “PBM E-score” value came to 0.0878. As for AACCGCAA, the “PBM E-score” value stood at 0.0487.

For ACACAGTC, the “PBM E-score” value was determined as 0.285.

Take CCGTCTAG: the “PBM E-score” value was -0.0627. For CCAAAGCC the value was -0.177; for GTCTCTAA, 0.0492.

Turning to ACTACATA, the “PBM E-score” value came to 0.209. As to CTTTCTCC, the “PBM E-score” value is -0.157.

On to CTAATCAC, for which the “PBM E-score” value is 0.393. For CTGATGCC the value was -0.135; for AAGGACTG, 0.184.

With GCCCTAAC, the “PBM E-score” value was -0.182. For the sequence GTTCCCGA, the “PBM E-score” value was -0.0537. With TAGCTATA, the “PBM E-score” value is -0.115.

With CTCATGGC, the “PBM E-score” value was 0.221.
